From publication PMC4336329 (PLoS ONE, 2015)
In all, about 310,000 compounds went through this assay and about 2,200 (0.71%) showed an effect of 50% or more. The effect is printed as a negative number. This is one part of the list.

What follows are compounds tested against human ether-à-go-go-related gene (hERG) potassium channel (human, UniProt Q12809) (assay: primary screen, population patch clamp on CHO cells stably expressing hERG).
human ether-à-go-go-related gene (hERG) potassium channel, sequence (Q12809 whole entry, looked up): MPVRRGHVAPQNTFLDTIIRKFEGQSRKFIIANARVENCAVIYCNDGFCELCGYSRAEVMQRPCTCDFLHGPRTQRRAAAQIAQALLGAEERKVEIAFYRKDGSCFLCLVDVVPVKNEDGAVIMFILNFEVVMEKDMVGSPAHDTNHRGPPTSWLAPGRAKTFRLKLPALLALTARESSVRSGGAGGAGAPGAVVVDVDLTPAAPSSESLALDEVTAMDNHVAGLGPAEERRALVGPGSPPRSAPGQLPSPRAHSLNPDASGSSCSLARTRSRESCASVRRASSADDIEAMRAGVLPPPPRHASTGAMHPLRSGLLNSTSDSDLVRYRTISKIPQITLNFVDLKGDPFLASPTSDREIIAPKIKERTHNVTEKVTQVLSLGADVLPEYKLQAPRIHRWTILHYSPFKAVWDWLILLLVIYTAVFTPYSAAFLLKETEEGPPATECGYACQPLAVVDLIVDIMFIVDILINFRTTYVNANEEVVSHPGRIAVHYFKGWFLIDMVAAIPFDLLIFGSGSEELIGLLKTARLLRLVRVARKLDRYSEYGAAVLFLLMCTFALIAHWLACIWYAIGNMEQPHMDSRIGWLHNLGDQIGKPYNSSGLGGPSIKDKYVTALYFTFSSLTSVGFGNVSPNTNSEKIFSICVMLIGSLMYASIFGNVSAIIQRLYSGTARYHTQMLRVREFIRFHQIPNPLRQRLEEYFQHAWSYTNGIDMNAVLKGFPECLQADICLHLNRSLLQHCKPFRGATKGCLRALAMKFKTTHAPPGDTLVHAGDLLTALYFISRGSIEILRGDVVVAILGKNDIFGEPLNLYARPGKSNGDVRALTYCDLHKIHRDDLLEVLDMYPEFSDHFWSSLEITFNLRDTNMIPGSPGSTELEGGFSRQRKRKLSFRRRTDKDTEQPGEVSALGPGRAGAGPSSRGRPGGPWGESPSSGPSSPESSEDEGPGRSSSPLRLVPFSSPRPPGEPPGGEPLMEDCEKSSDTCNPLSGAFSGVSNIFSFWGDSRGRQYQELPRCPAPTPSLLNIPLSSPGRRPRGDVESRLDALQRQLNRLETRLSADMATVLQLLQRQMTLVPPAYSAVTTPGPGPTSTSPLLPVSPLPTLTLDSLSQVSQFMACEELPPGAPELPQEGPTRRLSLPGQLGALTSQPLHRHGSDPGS

First: COC(=O)Nc1nnc(Cc2ccc(OC)cc2)s1
Second: COc1ccc(CCC(=O)c2ccc(OC)cc2)cc1
The “hERG current change (%, negative = inhibition) at 1uM” value of the first is higher: 16.1% for the first, 8.67% for the second.

First: CCOc1cccc(-c2c(C(=O)N/N=C/c3cccnc3)nnn2-c2nonc2N)c1
Second: O=C(N/N=C/C=C\c1ccco1)c1cccnc1
The “hERG current change (%, negative = inhibition) at 1uM” value of the first is lower: -15.3% for the first, 11.4% for the second.

Compared with `CCC(=O)Nc1ccc(C(=O)OCc2ccc(Cl)c(Cl)c2)cc1`, `CCOc1ccccc1C(=O)N(C)CC(=O)Nc1ccc(OC)cc1` is higher in “hERG current change (%, negative = inhibition) at 1uM” value: 2.38% for the first, 6.82% for the second.

First: CC1CCCCN1C(=O)CN1C(=O)CSc2ccc(S(=O)(=O)N3CCOCC3)cc21 (stereo not shown)
Second: O=C(Nc1cccc(S(=O)(=O)N2CCOCC2)c1)c1ccc(N2CCCC2=O)cc1
The “hERG current change (%, negative = inhibition) at 1uM” value of the first is higher: 12.4% for the first, 6.91% for the second.

First: COc1ccc(-c2csc(Nc3ccccn3)n2)cc1OC
Second: COc1ccc(/C=C/C(=O)NCc2nc3ccccc3[nH]2)cc1OC
The “hERG current change (%, negative = inhibition) at 1uM” value of the first is higher: 13.6% for the first, 6.86% for the second.

First: COc1cc(C(=O)OCC(=O)N(C)c2ccccc2)cc(OC)c1OC
Second: COc1ccc(OC)c(C(=O)c2ccccc2)c1
The “hERG current change (%, negative = inhibition) at 1uM” value of the first is lower: 7.74% for the first, 13.9% for the second.

Going from `CN(C)S(=O)(=O)c1ccc(C(=O)NCC(=O)Nc2ccc(F)c(F)c2)cc1` to `CC(=O)NS(=O)(=O)c1ccc(NC(=O)CSc2ccccc2)cc1`, the “hERG current change (%, negative = inhibition) at 1uM” value rises from 6.33% to 10.5%.

First: COCc1nnc(NC(=O)c2ccc(S(=O)(=O)N3CCCC3)cc2)o1
Second: COc1ccc(S(=O)(=O)N2CCC(C(=O)Nc3c(F)cccc3F)CC2)cc1
The “hERG current change (%, negative = inhibition) at 1uM” value of the first is lower: 8.06% for the first, 17.6% for the second.

Compared with `COc1ccc(Br)cc1CNC(=O)C1CCN(S(=O)(=O)N2CCCCC2)CC1`, `CC1CCN(C(=O)COC(=O)c2cc(=O)[nH]c3ccccc23)CC1` is lower in “hERG current change (%, negative = inhibition) at 1uM” value: 11.7% for the first, 11.2% for the second.

Compared with `Nc1ccc(S(=O)(=O)Nc2nccc(/C=C/c3ccc(Cl)cc3Cl)n2)cc1`, `O=C(Nc1cccn(Cc2c(Cl)cccc2Cl)c1=O)c1ccc(Cl)cc1Cl` is lower in “hERG current change (%, negative = inhibition) at 1uM” value: 11.1% for the first, 8.72% for the second.

Going from `CC1=C(C(N)=O)C(c2ccc3c(c2)OCO3)n2nc(-c3cccc(C)c3)nc2N1` (stereo not shown) to `O=C1C(=O)N(Cc2cccnc2)C(c2cccc(Br)c2)/C1=C(/O)c1ccc2c(c1)OCO2` (stereo not shown), the “hERG current change (%, negative = inhibition) at 1uM” value rises from -9.71% to 4.82%.

Going from `CCCS(=O)(=O)c1snnc1C` to `Cc1ccc(S(=O)(=O)CCNC(=O)Cc2ccc(Cl)cc2)cc1`, the “hERG current change (%, negative = inhibition) at 1uM” value falls from 9.83% to 6.08%.

Going from `Cc1ccccc1N(CC(=O)N1CCCC1)S(=O)(=O)c1ccc(Cl)cc1` to `O=C(CN(Cc1ccccc1F)S(=O)(=O)c1ccc(Cl)cc1)NCCC1=CCCCC1`, the “hERG current change (%, negative = inhibition) at 1uM” value rises from 0.152% to 13%.

Compared with `CCOC(=O)c1ccc(Oc2nc(OC)nc(N(C)C)n2)cc1`, `COc1ccc(C(=O)Nn2cnnc2)cc1` is lower in “hERG current change (%, negative = inhibition) at 1uM” value: 10.8% for the first, 4.91% for the second.

First: Cc1cc(C)c2c(=O)c(/C=C3\NC(=S)NC3=O)coc2c1
Second: Cc1ccc2oc(=O)c3cc(C(=O)NCCCN4CC(C)CC(C)C4)sc3c2c1 (stereo not shown)
The “hERG current change (%, negative = inhibition) at 1uM” value of the first is higher: 14.4% for the first, -13% for the second.

First: CCOC(=O)/C=C1\SCC(=O)N1CC(=O)NCCc1ccc(F)cc1
Second: COc1ccc(CCNC(=O)CN2CCN(Cc3ccc(F)cc3)C2=O)cc1OC
The “hERG current change (%, negative = inhibition) at 1uM” value of the first is lower: 10.8% for the first, 13.9% for the second.

First: COc1ccc2[nH]cc(CCNC(=O)Cc3c(F)cccc3Cl)c2c1
Second: COc1ccc(CCNC(=O)CSCc2ccc(F)cc2)cc1OC
The “hERG current change (%, negative = inhibition) at 1uM” value of the first is higher: 9.3% for the first, 5.73% for the second.

Going from `COc1cc(/C=N/NC(=O)c2cc(O)cc(O)c2)ccc1OC(=O)c1ccccc1` to `COc1cccc(O)c1CN1CCC(Oc2ccc(C(=O)NCc3ccccn3)cc2)CC1`, the “hERG current change (%, negative = inhibition) at 1uM” value falls from 17.4% to 3.91%.

Compared with `CCOC(=O)c1ccc(-n2ccnc2)c(NC(=O)c2cccc(Br)c2)c1`, `CCc1ccc(C(=O)COC(=O)CNC(=O)Cc2ccccc2)cc1` is higher in “hERG current change (%, negative = inhibition) at 1uM” value: -7.03% for the first, 8.13% for the second.

First: CCC(=O)N1CCN(c2ccc(NC(=O)c3ccc(Br)o3)cc2)CC1
Second: CCC(=O)N1CCN(c2ccc(NC(=O)COc3ccc(C)cc3C)cc2)CC1
The “hERG current change (%, negative = inhibition) at 1uM” value of the first is lower: -1.62% for the first, 12.5% for the second.

First: O=c1c(-c2ccc(Oc3ccccc3)cc2)[n+]([O-])c2ccccc2n1OCc1ccccn1
Second: CCn1c(COc2ccccc2)nnc1SCC(=O)CC(=O)Nc1ccccc1OC
The “hERG current change (%, negative = inhibition) at 1uM” value of the first is lower: -16.6% for the first, 6.86% for the second.

Going from `S=C(NCCCN1CCOCC1)N1CCOCC1` to `Cc1occc1-c1nnc(SCC(=O)N2CCOCC2)n1CCc1ccccc1`, the “hERG current change (%, negative = inhibition) at 1uM” value falls from 12.8% to 0.77%.

Compared with `Cc1nc2c3cc(F)ccc3n(Cc3ccccc3F)c2s1`, `COCCN1CCN(C(=O)c2ccc3nc(Cc4ccccc4F)oc3c2)CC1` is lower in “hERG current change (%, negative = inhibition) at 1uM” value: 13% for the first, 2% for the second.

Compared with `COc1ccc(OCc2cc(C(=O)NC3Cc4ccccc4C3)no2)c(Cl)c1`, `CC(C)Oc1ccc(N2CC(C(=O)Nc3ccccc3C(=O)NC3CC3)CC2=O)cc1` (stereo not shown) is lower in “hERG current change (%, negative = inhibition) at 1uM” value: 8.09% for the first, -37.4% for the second.

Compared with `CCCCSc1cc(=O)[nH]c(N)n1`, `CCSc1nc2sccc2c(=O)n1-c1ccccc1` is lower in “hERG current change (%, negative = inhibition) at 1uM” value: 14.8% for the first, 14.6% for the second.

Compared with `CCN(CC(=O)Nc1ccc(NC(C)=O)cc1)C(=O)CSCC(=O)Nc1ccc(C)cc1`, `Cc1ccc2nc(-c3ccc(NC(=O)CN4CCN(C(=O)c5ccco5)CC4)cc3)sc2c1` is higher in “hERG current change (%, negative = inhibition) at 1uM” value: 9.07% for the first, 13.1% for the second.

Compared with `CCOC(=O)Cc1csc(NC(=O)/C=C/c2ccc(Cl)cc2)n1`, `CCOc1ccc(/C=C/C(=O)N(C)CC(=O)Nc2cccc(F)c2)cc1OCC` is higher in “hERG current change (%, negative = inhibition) at 1uM” value: 1.25% for the first, 15.5% for the second.

First: CCNc1ccccc(C(=O)/C=C/c2ccc3c(c2)OCO3)c1=O
Second: O=C(COc1ccc(F)cc1Br)N1CCc2ccccc21
The “hERG current change (%, negative = inhibition) at 1uM” value of the first is higher: 17.8% for the first, 12.6% for the second.

First: CC(C)Cc1nnc(NC(=O)CCC(=O)N2CCN(CCOC(c3ccccc3)c3ccccc3)CC2)s1
Second: CC(=O)C1=C(C)N(Cc2ccccc2)C(=O)N[C@H]1CCc1ccccc1
The “hERG current change (%, negative = inhibition) at 1uM” value of the first is lower: 6.29% for the first, 7.2% for the second.

First: CC(C)c1ccc(S(=O)(=O)NC2CCS(=O)(=O)C2)cc1 (stereo not shown)
Second: CCC(C)c1ccc(NC(=S)NC2CCN(Cc3ccccc3)CC2)cc1 (stereo not shown)
The “hERG current change (%, negative = inhibition) at 1uM” value of the first is lower: 5.19% for the first, 8.05% for the second.

Compared with `CCCN1C(=O)/C(=C/c2ccncc2)SC1=S`, `O=C(Nc1ccncc1)c1ccc(Cl)cc1` is lower in “hERG current change (%, negative = inhibition) at 1uM” value: 10.4% for the first, 9.64% for the second.

Compared with `COc1cc(OC)cc(C(=O)N2CCN(Cc3ccccc3Br)CC2)c1`, `Oc1ccc(N2CCN(Cc3nc4ccccc4[nH]3)CC2)cc1` is lower in “hERG current change (%, negative = inhibition) at 1uM” value: 9.25% for the first, 9.24% for the second.

Going from `CC1(OC(=O)c2cccs2)C(=O)C=C2C=C(c3ccsc3)OC=C2C1=O` (stereo not shown) to `Cc1ccc(C(=O)CC2(O)C(=O)N(C)c3ccccc32)s1` (stereo not shown), the “hERG current change (%, negative = inhibition) at 1uM” value rises from 5.5% to 11.3%.

Compared with `O=C1Nc2ccc([N+](=O)[O-])cc2C1(O)N1CCCCC1` (stereo not shown), `COCCCNC(=O)CSc1nc2ccccc2c(=O)n1CCCN1CCCCC1` is higher in “hERG current change (%, negative = inhibition) at 1uM” value: 2.11% for the first, 15.3% for the second.

Going from `COc1ccccc1OCCOCCOc1ccccc1Cl` to `COCCSc1ccccc1C(=O)NCc1ccco1`, the “hERG current change (%, negative = inhibition) at 1uM” value falls from 14.8% to -0.155%.

Going from `O=C(O)c1ccc(/C=N/n2cc(-c3ccccc3)[nH]c2=S)cc1` to `O=C(Nc1ccc(C(F)(F)F)cc1)c1ccccc1`, the “hERG current change (%, negative = inhibition) at 1uM” value falls from 9.78% to 7.52%.

Compared with `Cn1c(SCC(=O)NC(=O)NCc2ccco2)nnc1C(F)(F)F`, `CSCC(=O)N1CCCC(CNC(=O)c2ccccc2Cl)C1` (stereo not shown) is higher in “hERG current change (%, negative = inhibition) at 1uM” value: 2.54% for the first, 12.5% for the second.

Going from `Clc1ccccc1C1=CC(c2ccco2)n2ncnc2N1` (stereo not shown) to `Clc1ccccc1CSc1nnc(-c2ccco2)c(-c2ccco2)n1`, the “hERG current change (%, negative = inhibition) at 1uM” value rises from 0.281% to 6.19%.

First: CSc1ccccc1NC(=O)CN(C)CC(=O)NCc1ccccc1
Second: O=C(CSCc1ccc(Br)cc1)Nc1ccccc1C(=O)N1CCOCC1
The “hERG current change (%, negative = inhibition) at 1uM” value of the first is lower: 2.82% for the first, 10.7% for the second.

First: O=C(c1ccc2c(=O)n(C3CCCC3)c(=S)[nH]c2c1)N1CCc2ccccc21
Second: COc1ccccc1N1C(=O)CC(Sc2n[nH]c(-c3cccc(C)c3)n2)C1=O (stereo not shown)
The “hERG current change (%, negative = inhibition) at 1uM” value of the first is higher: 10.8% for the first, 8.37% for the second.

Going from `Cc1cc(C)n2cc(COc3ccc4ccccc4c3)nc2n1` to `COc1cc2oc3ccc(C#Cc4ccccn4)cc3c(=O)c2cc1OC`, the “hERG current change (%, negative = inhibition) at 1uM” value rises from -4.92% to 11.8%.

Compared with `Cc1ccc(N(CCC#N)C(=O)CSc2ccc3c(c2)OCCO3)cc1`, `Cc1ccccc1C(=O)NCC(=O)OC(C)C(=O)Nc1cccc(S(=O)(=O)N2CCOCC2)c1` (stereo not shown) is higher in “hERG current change (%, negative = inhibition) at 1uM” value: 2.75% for the first, 14.4% for the second.

Compared with `NC(=O)CCC(NC(=S)Nc1ccccc1)C(=O)O` (stereo not shown), `O=C(O)C1CCCN1C(=O)Nc1ccc(F)cc1` (stereo not shown) is lower in “hERG current change (%, negative = inhibition) at 1uM” value: 11.5% for the first, 0.144% for the second.

First: Cn1ccnc1Sc1cc(Cl)ccc1[N+](=O)[O-]
Second: CCNc1nc2c(c(=O)n(C)c(=O)n2C)n1Cc1ccc(Cl)cc1
The “hERG current change (%, negative = inhibition) at 1uM” value of the first is higher: 15.8% for the first, 3.75% for the second.

Going from `COc1ccc(C2(C(=O)O)CCCC2)cc1` to `O=C(/C=C/c1cccs1)N1CCN(c2ccccc2)CC1`, the “hERG current change (%, negative = inhibition) at 1uM” value rises from 8.89% to 12.4%.

In the case of `CCCCC(=O)Nc1c2c(nn1-c1cccc(C)c1C)CS(=O)(=O)C2`, the “hERG current change (%, negative = inhibition) at 1uM” value is reported as 7.74%.
